Where a chain is given by its changes, count along the chain named. Names and notes keep the numbering of the source. These are yes or no findings as the source states them, for the method shown. Binding seen in cells or lysates may run through a third protein. Some binding calls cover weakened binding; strength is not graded here. Sequences can lack the tags named with a protein.
B1: HA-tagged TRIM28-S824A (protein, UniProt Q13263 1-835)
chain: MAASAAAASAAAASAASGSPGPGEGSAGGEKRSTAPSAAASASASAAASSPAGGGAEALELLEHCGVCRERLRPEREPRLLPCLHSACSACLGPAAPAAANSSGDGGAAGDGTVVDCPVCKQQCFSKDIVENYFMRDSGSKAATDAQDANQCCTSCEDNAPATSYCVECSEPLCETCVEAHQRVKYTKDHTVRSTGPAKSRDGERTVYCNVHKHEPLVLFCESCDTLTCRDCQLNAHKDHQYQFLEDAVRNQRKLLASLVKRLGDKHATLQKSTKEVRSSIRQVSDVQKRVQVDVKMAILQIMKELNKRGRVLVNDAQKVTEGQQERLERQHWTMTKIQKHQEHILRFASWALESDNNTALLLSKKLIYFQLHRALKMIVDPVEPHGEMKFQWDLNAWTKSAEAFGKIVAERPGTNSTGPAPMAPPRAPGPLSKQGSGSSQPMEVQEGYGFGSGDDPYSSAEPHVSGVKRSRSGEGEVSGLMRKVPRVSLERLDLDLTADSQPPVFKVFPGSTTEDYNLIVIERGAAAAATGQPGTAPAGTPGAPPLAGMAIVKEEETEAAIGAPPTATEGPETKPVLMALAEGPGAEGPRLASPSGSTSSGLEVVAPEGTSAPGGGPGTLDDSATICRVCQKPGDLVMCNQCEFCFHLDCHLPALQDVPGEEWSCSLCHVLPDLKEEDGSLSLDGADSTGVVAKLSPANQRKCERVLLALFCHEPCRPLHQLATDSTFSLDQPGGTLDLTLIRARLQEKLSPPYSSPQEFAQDVGRMFKQFNKLTEDKADVQSIIGLQRFFETRMNEAFGDTKFSAVLVEPPPMSLPGAGLSAQELSGGPGDGP
B2: HA-tagged TRIM28-S824D (protein, UniProt Q13263 1-835)
chain: B1 chain with A824D

Sequences of proteins named here, by UniProt entry; tags and fusion partners are left off.
UniProt P50750: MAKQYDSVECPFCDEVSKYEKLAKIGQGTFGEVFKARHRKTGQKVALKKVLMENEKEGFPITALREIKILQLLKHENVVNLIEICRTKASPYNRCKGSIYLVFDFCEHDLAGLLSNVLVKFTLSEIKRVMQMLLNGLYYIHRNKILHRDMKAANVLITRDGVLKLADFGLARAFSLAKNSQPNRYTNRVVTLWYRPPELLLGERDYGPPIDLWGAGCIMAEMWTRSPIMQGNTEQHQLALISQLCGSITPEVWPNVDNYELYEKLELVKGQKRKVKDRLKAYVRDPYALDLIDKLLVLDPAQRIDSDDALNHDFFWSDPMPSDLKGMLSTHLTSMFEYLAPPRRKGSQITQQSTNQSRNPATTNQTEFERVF

Molecular target: FLAG-CDK9 (UniProt P50750)
Experiment: co-IP; SUM159 cells co-transfected with FLAG-CDK9 and HA-tagged TRIM28-WT, -S824A or -S824D; IP with FLAG Ab or HA Ab; immunoblot

Binder | binding
B1 | binds weakly
B2 | binds
